Test results published in the supplement of paper PMC8728848.
This is one part of the list.

What was measured:
Assay in all cases: glycan array binding signal (z-score within array); higher = stronger binding
Details in all cases: glycan notation: IUPAC condensed, linker removed
Fuc(a1-2)Gal = target: Fuc(a1-2)Gal
Outline: (§1)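 Negative Z-scores can be read as non-binding. The Z-score is calculated within each array and then averaged across arrays of one protein sequence at different concentrations or buffers and across linkers. Arrays, 3228 in all, were curated from the Consortium for Functional Glycomics database and kept only where the protein sequence was available.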

Fuc(a1-2)Gal(b1-3)GalNAc = target: Fuc(a1-2)Gal(b1-3)GalNAc
Outline: as §1

[1] = target: Fuc(a1-2)Gal(b1-3)GalNAc(a1-3)[Fuc(a1-2)]Gal(b1-4)Glc
Outline: as §1

[2] = target: Fuc(a1-2)Gal(b1-3)GalNAc(a1-3)[Fuc(a1-2)]Gal(b1-4)GlcNAc
Outline: as §1

[3] = target: Fuc(a1-2)Gal(b1-3)GalNAc(b1-3)Gal
Outline: as §1

[4] = target: Fuc(a1-2)Gal(b1-3)GalNAc(b1-3)Gal(a1-4)Gal(b1-4)Glc
Outline: as §1

[5] = target: Fuc(a1-2)Gal(b1-3)GalNAc(b1-4)[Neu5Ac(a2-3)]Gal(b1-4)Glc
Outline: as §1

Fuc(a1-2)Gal(b1-3)GlcNAc = target: Fuc(a1-2)Gal(b1-3)GlcNAc
Outline: as §1

[6] = target: Fuc(a1-2)Gal(b1-3)GlcNAc(b1-2)Man(a1-3)[Fuc(a1-2)Gal(b1-3)GlcNAc(b1-2)Man(a1-6)]Man(b1-4)GlcNAc(b1-4)GlcNAc
Outline: as §1

[7] = target: Fuc(a1-2)Gal(b1-3)GlcNAc(b1-2)Man(a1-3)[Fuc(a1-2)Gal(b1-3)GlcNAc(b1-2)Man(a1-6)]Man(b1-4)GlcNAc(b1-4)[Fuc(a1-6)]GlcNAc
Outline: as §1

[8] = target: Fuc(a1-2)Gal(b1-3)GlcNAc(b1-3)Gal(b1-4)Glc
Outline: as §1

[9] = target: Fuc(a1-2)Gal(b1-3)GlcNAc(b1-3)GalNAc
Outline: as §1

[10] = target: Fuc(a1-2)Gal(b1-3)GlcNAc(b1-3)[Fuc(a1-2)Gal(b1-3)GlcNAc(b1-6)]GalNAc
Outline: as §1

[11] = target: Fuc(a1-2)Gal(b1-3)GlcNAc(b1-3)[Gal(b1-4)GlcNAc(b1-6)]Gal(b1-4)Glc
Outline: as §1

[12] = target: Fuc(a1-2)Gal(b1-3)GlcNAc(b1-3)[Neu5Ac(a2-6)Gal(b1-4)GlcNAc(b1-6)]Gal(b1-4)Glc
Outline: as §1

[13] = target: Fuc(a1-2)Gal(b1-3)GlcNAc6S
Outline: as §1

[14] = target: Fuc(a1-2)Gal(b1-3)[Fuc(a1-4)]GlcNAc
Outline: as §1

[15] = target: Fuc(a1-2)Gal(b1-3)[Fuc(a1-4)]GlcNAc(b1-2)Man(a1-3)[Fuc(a1-2)Gal(b1-3)[Fuc(a1-4)]GlcNAc(b1-2)Man(a1-3)]Man(b1-4)GlcNAc(b1-4)GlcNAc
Outline: as §1

[16] = target: Fuc(a1-2)Gal(b1-3)[Fuc(a1-4)]GlcNAc(b1-2)Man(a1-3)[Fuc(a1-2)Gal(b1-3)[Fuc(a1-4)]GlcNAc(b1-2)Man(a1-6)]Man(b1-4)GlcNAc(b1-4)[Fuc(a1-6)]GlcNAc(b1-4)[Fuc(a1-6)]GlcNAc
Outline: as §1

[17] = target: Fuc(a1-2)Gal(b1-3)[Fuc(a1-4)]GlcNAc(b1-3)[Fuc(a1-3)[Gal(b1-4)]GlcNAc(b1-6)]Gal(b1-4)Glc
Outline: as §1

[18] = target: Fuc(a1-2)Gal(b1-3)[Fuc(a1-4)]GlcNAc(b1-3)[Gal(b1-4)GlcNAc(b1-6)]Gal(b1-4)Glc
Outline: as §1

Fuc(a1-2)Gal(b1-4)Glc = target: Fuc(a1-2)Gal(b1-4)Glc
Outline: as §1

Fuc(a1-2)Gal(b1-4)Glc6S = target: Fuc(a1-2)Gal(b1-4)Glc6S
Outline: as §1

Fuc(a1-2)Gal(b1-4)GlcNAc = target: Fuc(a1-2)Gal(b1-4)GlcNAc
Outline: as §1

[19] = target: Fuc(a1-2)Gal(b1-4)GlcNAc(b1-2)Man
Outline: as §1

[20] = target: Fuc(a1-2)Gal(b1-4)GlcNAc(b1-2)Man(a1-3)[Fuc(a1-2)Gal(b1-4)GlcNAc(b1-2)Man(a1-6)]Man(b1-4)GlcNAc(b1-4)GlcNAc
Outline: as §1

[21] = target: Fuc(a1-2)Gal(b1-4)GlcNAc(b1-2)Man(a1-3)[Fuc(a1-2)Gal(b1-4)GlcNAc(b1-2)Man(a1-6)]Man(b1-4)GlcNAc(b1-4)[Fuc(a1-6)]GlcNAc
Outline: as §1

[22] = target: Fuc(a1-2)Gal(b1-4)GlcNAc(b1-2)[Fuc(a1-2)Gal(b1-4)GlcNAc(b1-4)]Man(a1-3)[Fuc(a1-2)Gal(b1-4)GlcNAc(b1-2)Man(a1-6)]Man(b1-4)GlcNAc(b1-4)GlcNAc
Outline: as §1

[23] = target: Fuc(a1-2)Gal(b1-4)GlcNAc(b1-3)Gal(b1-4)GlcNAc
Outline: as §1

[24] = target: Fuc(a1-2)Gal(b1-4)GlcNAc(b1-3)Gal(b1-4)GlcNAc(b1-2)Man(a1-3)[Fuc(a1-2)Gal(b1-4)GlcNAc(b1-3)Gal(b1-4)GlcNAc(b1-2)Man(a1-6)]Man(b1-4)GlcNAc(b1-4)GlcNAc
Outline: as §1

[25] = target: Fuc(a1-2)Gal(b1-4)GlcNAc(b1-3)Gal(b1-4)GlcNAc(b1-3)Gal(b1-4)GlcNAc
Outline: as §1

[26] = target: Fuc(a1-2)Gal(b1-4)GlcNAc(b1-3)GalNAc
Outline: as §1

[27] = target: Fuc(a1-2)Gal(b1-4)GlcNAc(b1-3)[Fuc(a1-2)Gal(b1-4)GlcNAc(b1-6)]GalNAc
Outline: as §1

[28] = target: Fuc(a1-2)Gal(b1-4)GlcNAc(b1-3)[Fuc(a1-3)[Gal(b1-4)]GlcNAc(b1-6)]Gal(b1-4)Glc
Outline: as §1

[29] = target: Fuc(a1-2)Gal(b1-4)GlcNAc(b1-6)GalNAc
Outline: as §1

[30] = target: Fuc(a1-2)Gal(b1-4)GlcNAc6S
Outline: as §1

[31] = target: Fuc(a1-2)Gal(b1-4)[Fuc(a1-3)]GlcNAc
Outline: as §1

[32] = target: Fuc(a1-2)Gal(b1-4)[Fuc(a1-3)]GlcNAc(b1-2)Man(a1-3)[Fuc(a1-2)Gal(b1-4)[Fuc(a1-3)]GlcNAc(b1-2)Man(a1-6)]Man(b1-4)GlcNAc(b1-4)[Fuc(a1-6)]GlcNAc
Outline: as §1

[33] = target: Fuc(a1-2)Gal(b1-4)[Fuc(a1-3)]GlcNAc(b1-2)[Fuc(a1-2)Gal(b1-4)[Fuc(a1-3)]GlcNAc(b1-4)]Man(a1-3)[Fuc(a1-2)Gal(b1-4)[Fuc(a1-3)]GlcNAc(b1-2)Man(a1-6)]Man(b1-4)GlcNAc(b1-4)GlcNAc
Outline: as §1

[34] = target: Fuc(a1-2)Gal(b1-4)[Fuc(a1-3)]GlcNAc(b1-3)Gal(b1-4)[Fuc(a1-3)]GlcNAc
Outline: as §1

[35] = target: Fuc(a1-2)Gal(b1-4)[Fuc(a1-3)]GlcNAc(b1-3)Gal(b1-4)[Fuc(a1-3)]GlcNAc(b1-3)Gal(b1-4)[Fuc(a1-3)]GlcNAc
Outline: as §1

[36] = target: Fuc(a1-2)Gal(b1-4)[Fuc(a1-3)]GlcNAc(b1-3)GalNAc
Outline: as §1

[37] = target: Fuc(a1-2)Gal(b1-4)[Fuc(a1-3)]GlcNAc(b1-3)[Neu5Ac(a2-6)Gal(b1-4)GlcNAc(b1-6)]Gal(b1-4)Glc
Outline: as §1

[38] = target: Fuc(a1-2)Gal3S(b1-4)GlcNAc
Outline: as §1

[39] = target: Fuc(a1-2)Gal6S(b1-3)GlcNAc
Outline: as §1

B1: FimA-N3 (Actinomyces oris) (protein)
chain: MHHHHHHSSGVDLGTENLYFQSNAGLQGAQFQLYKAKNAYANTCSNEKEGAPIAINGQTTLTTDAQGAIDIKGLFISDSIDGADRDNQVNAMERCYVLVETKAPAGYVLPAGNGAATPVKVKAGEETTDN
- glycan array binding signal (z-score) (Fuc(a1-2)Gal): -0.054
- glycan array binding signal (z-score) (Fuc(a1-2)Gal(b1-3)GalNAc): -0.501
- glycan array binding signal (z-score) [1]: -0.046
- glycan array binding signal (z-score) [2]: -0.565
- glycan array binding signal (z-score) [3]: 5.62
- glycan array binding signal (z-score) [4]: -0.436
- glycan array binding signal (z-score) [5]: -0.174
- glycan array binding signal (z-score) (Fuc(a1-2)Gal(b1-3)GlcNAc): -0.447
- glycan array binding signal (z-score) [6]: 0.279
- glycan array binding signal (z-score) [7]: -0.196
- glycan array binding signal (z-score) [8]: 0.208
- glycan array binding signal (z-score) [9]: -0.296
- glycan array binding signal (z-score) [10]: 0.427
- glycan array binding signal (z-score) [11]: -0.19
- glycan array binding signal (z-score) [12]: -0.408
- glycan array binding signal (z-score) [13]: 0.218
- glycan array binding signal (z-score) [14]: -0.303
- glycan array binding signal (z-score) [15]: -0.423
- glycan array binding signal (z-score) [16]: -0.528
- glycan array binding signal (z-score) [17]: -0.6
- glycan array binding signal (z-score) [18]: -0.382
- glycan array binding signal (z-score) (Fuc(a1-2)Gal(b1-4)Glc): -0.14
- glycan array binding signal (z-score) (Fuc(a1-2)Gal(b1-4)Glc6S): -0.423
- glycan array binding signal (z-score) (Fuc(a1-2)Gal(b1-4)GlcNAc): -0.219
- glycan array binding signal (z-score) [19]: -0.23
- glycan array binding signal (z-score) [20]: -0.425
- glycan array binding signal (z-score) [21]: -0.309
- glycan array binding signal (z-score) [22]: -0.266
- glycan array binding signal (z-score) [23]: -0.556
- glycan array binding signal (z-score) [24]: 0.137
- glycan array binding signal (z-score) [25]: -0.516
- glycan array binding signal (z-score) [26]: -0.148
- glycan array binding signal (z-score) [27]: -0.491
- glycan array binding signal (z-score) [28]: -0.114
- glycan array binding signal (z-score) [29]: 0.198
- glycan array binding signal (z-score) [30]: -0.496
- glycan array binding signal (z-score) [31]: -0.292
- glycan array binding signal (z-score) [32]: 0.027
- glycan array binding signal (z-score) [33]: -0.135
- glycan array binding signal (z-score) [34]: -0.115
- glycan array binding signal (z-score) [35]: -0.108
- glycan array binding signal (z-score) [36]: -0.639
- glycan array binding signal (z-score) [37]: -0.472
- glycan array binding signal (z-score) [38]: -0.216
- glycan array binding signal (z-score) [39]: 0.001
